# Measured values published in PubChem BioAssay AID686978 (National Center for Advancing Translational Sciences (NCATS), 2013).
# About 64,000 (15%) of roughly 420,000 compounds were called active. Inconclusive means that the source gave no clear call. Such entries were picked first, then a sample of the others. Calls come from the whole dose curve; as a rule, active = well fitted inhibition curve with a large enough effect; inconclusive = small, poorly fitted or top-dose-only effect; inactive = flat fitted curve, though single readings scatter. No potency is given beside an inconclusive call; the fits are too rough.
# Experiment: qHTS for Inhibitors of human tyrosyl-DNA phosphodiesterase 1 (TDP1): qHTS in cells in absence of CPT; note: nearly all actives have a fitted effect of over 55% in size
# Conditions: DT40 Tdp1-/- hTDP1 cells, no CPT, ATP luminescence, 48 h; activity change, negative = growth inhibition: at 46.2 µM (top of the series) unless noted
# Method in brief: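 Stably hTDP1-transfected Tdp1-null chicken DT40 cells were treated with library compounds minus camptothecin and grown for at least 48 hr at 37 °C, after which cellular ATP was quantified by luminescence.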
# % is set by controls: 0 for no effect and ±100 for the full control effect; potency is the fitted concentration of half-maximal effect; tags give direction and shape of the fitted curve.
Compound,Potency,"activity change, negative = growth inhibition"
COc1ccc(O)c(-c2cc(-c3cccs3)[nH]n2)c1,"inconclusive [inhibitor, partial curve]",–
CC1(NC(=O)Nc2cccc(Br)c2)CCS(=O)(=O)C1 (stereo not given),–,inactive: -0.719%
CN(C)c1ccc(CNC(=O)CCn2cccn2)cc1,–,inactive: 2.6%
CCc1cccc(CN2CCC(CNC(=O)Nc3ccc(Cl)cc3)CC2)c1,"inconclusive [inhibitor, single point]",–
COc1ccc(NC(=O)c2ccco2)c2ccccc12,–,inactive: -1.11%
CCOC(=O)c1cc(NC(=O)c2ccccc2)c(=O)n2c1oc1ccccc12,"inconclusive [inhibitor, partial curve]",–
OCCCNc1nc(-c2ccccc2)nc2c1oc1ccccc12,"inconclusive [inhibitor, partial curve, poor fit]",–
CCOc1ccc(N2Cc3ccccc3C2)cc1,"inconclusive [inhibitor, partial curve]",–
CN(C)CCn1c(SCc2ccccc2C#N)nc2c(sc3ccccc32)c1=O,–,inconclusive: -32.3% [inhibitor]
CC(C)c1cnc2c(c1SCC(=O)Nc1cccc(F)c1)c(=O)n(C)c(=O)n2C,active: 14.6 µM,–
CC1Cc2ccccc2N1Cc1nc2cc(C(F)(F)F)ccc2c(=O)[nH]1 (stereo not given),"inconclusive [inhibitor, single point]",–
Cc1ccc(Cl)cc1Nc1nn2c(=O)c3ccc(C(=O)N4CCCC(C)C4)cc3nc2s1 (stereo not given),"inconclusive [inhibitor, single point]",–
CCn1cc2nc(SCc3cccc(Cl)c3)n(Cc3ccc(C)cc3)c(=O)c2n1,active: 23.1 µM,–
CCN(CC)S(=O)(=O)c1ccc(N2CCCC2)c(NS(=O)(=O)c2cccs2)c1,"inconclusive [inhibitor, single point]",–
CCN(CC(=O)Nc1cc(Cl)ccc1Cl)C(=O)c1ccc(-n2cccn2)cc1,–,inactive: -22.6%
CNC(=O)Cn1nc(-c2ccc(C)cc2)c2ccccc2c1=O,active: 14.6 µM,–
COc1cc(C)c(Br)cc1S(=O)(=O)NCc1ccncc1,active: 9.2 µM,–
CCOc1ccc(C(=O)NC(=S)Nc2ccccc2N2CCC(C)CC2)cc1[N+](=O)[O-],active: 16.4 µM,–
CCCS(=O)(=O)N1CCCC(C(=O)NCCN(CC)c2ccccc2)C1 (stereo not given),"inconclusive [inhibitor, partial curve, poor fit]",–
COc1cc2c(cc1OC)CN(c1ccc(-c3ccccc3OC)nn1)CC2,active: 23.1 µM,–
O=C(NCC(c1ccco1)N1CCc2ccccc21)c1ccccc1 (stereo not given),"inconclusive [inhibitor, single point]",–
O=C(Nc1cccc(F)c1)C1CCN(S(=O)(=O)c2cccc3nsnc23)CC1,"inconclusive [inhibitor, single point]",–
COc1ccccc1C(=O)NCCC(=O)N(Cc1ccco1)Cc1cccs1,"inconclusive [inhibitor, single point]",–
COc1ccc(CCNS(=O)(=O)c2cc(-c3cc(C)no3)ccc2C)cc1OC,"inconclusive [inhibitor, single point]",–

Compound,Potency,"activity change, negative = growth inhibition"
O=C(CCc1nnc2ccc(NCc3ccco3)nn12)Nc1cccc(F)c1,–,inactive: 4.22%
CCCCNC(=O)c1ccccc1NC(=O)C1=C(C)OCCS1,"inconclusive [inhibitor, single point]",–
CCOC(=O)C1=C(CC)Nc2ccccc2N=C1NC(=O)CCN1C(=O)C2CCCCC2C1=O (stereo not given),"inconclusive [inhibitor, single point]",–
Cc1cccc(NC(=O)CSCc2cc(=O)n3nc(C4CC4)sc3n2)c1,–,inactive: -14.2%
Cc1cc(C)cc(OC(C)C(=O)Nc2c(C(=O)c3ccccc3)oc3ccccc23)c1 (stereo not given),–,inactive: 2.39%
COCCn1c(C)cc(C(=O)COC(=O)c2cncc(Br)c2)c1C,"inconclusive [inhibitor, partial curve]",–
COCCNC(=O)/C=C/c1c(Cl)cccc1Cl,–,inactive: -16.1%
COc1cccc(C2CC(c3ccccc3OC)n3nc(N)nc3N2)c1 (stereo not given),–,inactive: -15.3%
c1ccc(CSc2nc3ncccc3[nH]2)cc1,"inconclusive [inhibitor, single point]",–
Cc1nc2c(C#N)cnn2c2c1CCN(Cc1ccccc1)N2C,"inconclusive [inhibitor, partial curve]",–
CN(C)CCC(=O)N1c2ccccc2Sc2ccc(C(F)(F)F)cc21,"inconclusive [inhibitor, single point]",–
CCN(c1ccc(OC)cc1)S(=O)(=O)c1nnc(NC(=O)COc2ccccc2)s1,"inconclusive [inhibitor, single point]",–
COC(=O)Cn1cnc2c(C#N)c3n(c2c1=O)CCCCC3,–,inactive: -4.84%
COc1ccc(NC(=O)N(C)C[C@H]2Oc3ccc(NC(=O)Cn4cnnn4)cc3C(=O)N([C@H](C)CO)C[C@@H]2C)cc1,–,inactive: 2.57%
Cc1ccc(NC(=O)c2ccc(CSc3nnc(C)s3)cc2)c(C)c1,"inconclusive [inhibitor, partial curve]",–
CCCCN(C)C(=O)c1ccc(Nc2nc(C(N)CCc3ccccc3)cs2)nc1 (stereo not given),active: 20.6 µM,–
CS(=O)(=O)N1CCN(c2ccc([N+](=O)[O-])cc2F)CC1,"inconclusive [inhibitor, partial curve, poor fit]",–
Cc1cccc(NC2=C(Cl)C(=O)OC2OC(=O)c2ccco2)c1 (stereo not given),active: 20.6 µM,–
CCCN(CCC)S(=O)(=O)c1ccc(C(=O)Nc2sc3c(c2C(=O)OC)CCN(CC)C3)cc1,active: 20.6 µM,–
COc1ccc(/C=C/S(=O)(=O)NCc2ccccc2)cc1OC,"inconclusive [inhibitor, single point]",–
Cc1ccc(CO/N=C\Cc2snc(Sc3ncc(C(F)(F)F)cc3Cl)c2C#N)cc1,"inconclusive [inhibitor, partial curve, poor fit]",–
CCC(C)c1ccc(NC(=O)c2cccs2)cc1 (stereo not given),"inconclusive [inhibitor, partial curve]",–
O=C(Nc1ccc(F)cc1)N1CCN(c2ncccn2)CC1,"inconclusive [inhibitor, single point]",–
O=C(CC1C(=O)N(c2ccc(Cl)cc2)C(=S)N1CCc1ccncc1)Nc1ccc(F)cc1 (stereo not given),"inconclusive [inhibitor, single point]",–

Compound,Potency,"activity change, negative = growth inhibition"
CN(C(=O)CSc1nnc2ccccn12)c1c(N)n(Cc2ccccc2)c(=O)[nH]c1=O,–,inactive: -0.266%
COC(=O)c1ccc(Oc2cc(C)nc(NCc3ccccc3)n2)cc1,–,inconclusive: -30.8% [inhibitor]
CC(C)(O)C#Cc1ccc(C(=O)N2CCCC(CCC(=O)NCc3ccccc3F)C2)cc1 (stereo not given),"inconclusive [inhibitor, partial curve]",–
Cc1ccc(S(=O)(=O)N2CCC(C(=O)Nc3ccc(C)c(Cl)c3)CC2)cc1,"inconclusive [inhibitor, single point]",–
Cc1ccc(-n2nc3c(=O)n(CC(=O)NCCC4=CCCCC4)nc(C)c3c2C)cc1,"inconclusive [inhibitor, partial curve, poor fit]",–
COc1cc2c(cc1NC(=S)Nc1cccc3ccccc13)oc1ccccc12,"inconclusive [inhibitor, full curve, poor fit]",–
Cc1ccc([C@@H]2C[C@H]3[C@@H](CN2S(=O)(=O)c2ccc(C)cc2)C(=O)C[C@@H](c2ccc(Cl)cc2)N3S(=O)(=O)c2ccc(C)cc2)cc1,"inconclusive [inhibitor, partial curve]",–
COC(=O)c1cccc(C(=O)N2CCCC(C(=O)c3cc(F)ccc3F)C2)c1 (stereo not given),"inconclusive [inhibitor, single point]",–
COc1ccc(-n2nc(C)c3c(C(F)(F)F)cc(-c4cccnc4)nc32)cc1,–,inactive: -23.3%
CN(CC(=O)Nc1cccc(F)c1)C(=O)c1ccc(N2CCCCC2)c([N+](=O)[O-])c1,active: 14.6 µM,–
Cc1cn2c(=O)cc(COC(=O)c3cccc(NC(=O)c4ccccc4C)c3)nc2s1,–,inactive: -21.7%
COc1ccc(C(=O)Nc2cccc(C)c2)cc1,–,inactive: 2.7%
COc1ccc(-c2oc3ccc(N4CCOCC4)cc3c2C#CCO)cc1,"inconclusive [inhibitor, single point]",–
CCC1CCc2c(sc(NC(=O)C3c4ccccc4Oc4ccccc43)c2C(N)=O)C1 (stereo not given),"inconclusive [inhibitor, single point]",–
COc1ccc(C(=O)COC(=O)C(Cc2c[nH]c3ccccc23)NC(=O)c2ccc(C(C)(C)C)cc2)cc1 (stereo not given),active: 13 µM,–
COc1ccc(OC)c(C2C(C(C)=O)=C(O)C(=O)N2CCC(=O)O)c1 (stereo not given),–,inactive: 3.92%
O=C1c2[nH]nc(-c3ccccc3O)c2C(c2cccc(OCc3ccccc3)c2)N1CCO (stereo not given),"inconclusive [inhibitor, partial curve]",–
CCC(C)C(NS(=O)(=O)c1ccc(C)cc1)C(=O)Oc1ccc2c3c(c(=O)oc2c1)CCC3 (stereo not given),"inconclusive [inhibitor, single point]",–
COc1ccc(CCNC(=O)C(=O)NCC(c2cccs2)S(=O)(=O)c2ccc(C)cc2)cc1 (stereo not given),active: 9.2 µM,–
Cc1cc2cc(C)c3nnc(SCC(=O)NCc4ccc5c(c4)OCO5)n3c2cc1C,–,inactive: -25.6%
CN(C)C=Nc1nc2ccccc2nc1N1CCCC1,–,inconclusive: -30.9% [inhibitor]
CCOC(=O)c1c(C)[nH]c(C)c1S(=O)(=O)N1CCN(c2cccc(C(F)(F)F)c2)CC1,"inconclusive [inhibitor, single point]",–
